85 molecules from paper PMC4336329 (PLoS ONE, 2015) can be followed below.

The whole screen tested about 310,000 compounds, of which about 2,200 (0.71%) showed an effect of 50% or more. The effect is printed as a negative number. The list shows a part of the results.

human ether-à-go-go-related gene (hERG) potassium channel, sequence (Q12809 whole entry, looked up): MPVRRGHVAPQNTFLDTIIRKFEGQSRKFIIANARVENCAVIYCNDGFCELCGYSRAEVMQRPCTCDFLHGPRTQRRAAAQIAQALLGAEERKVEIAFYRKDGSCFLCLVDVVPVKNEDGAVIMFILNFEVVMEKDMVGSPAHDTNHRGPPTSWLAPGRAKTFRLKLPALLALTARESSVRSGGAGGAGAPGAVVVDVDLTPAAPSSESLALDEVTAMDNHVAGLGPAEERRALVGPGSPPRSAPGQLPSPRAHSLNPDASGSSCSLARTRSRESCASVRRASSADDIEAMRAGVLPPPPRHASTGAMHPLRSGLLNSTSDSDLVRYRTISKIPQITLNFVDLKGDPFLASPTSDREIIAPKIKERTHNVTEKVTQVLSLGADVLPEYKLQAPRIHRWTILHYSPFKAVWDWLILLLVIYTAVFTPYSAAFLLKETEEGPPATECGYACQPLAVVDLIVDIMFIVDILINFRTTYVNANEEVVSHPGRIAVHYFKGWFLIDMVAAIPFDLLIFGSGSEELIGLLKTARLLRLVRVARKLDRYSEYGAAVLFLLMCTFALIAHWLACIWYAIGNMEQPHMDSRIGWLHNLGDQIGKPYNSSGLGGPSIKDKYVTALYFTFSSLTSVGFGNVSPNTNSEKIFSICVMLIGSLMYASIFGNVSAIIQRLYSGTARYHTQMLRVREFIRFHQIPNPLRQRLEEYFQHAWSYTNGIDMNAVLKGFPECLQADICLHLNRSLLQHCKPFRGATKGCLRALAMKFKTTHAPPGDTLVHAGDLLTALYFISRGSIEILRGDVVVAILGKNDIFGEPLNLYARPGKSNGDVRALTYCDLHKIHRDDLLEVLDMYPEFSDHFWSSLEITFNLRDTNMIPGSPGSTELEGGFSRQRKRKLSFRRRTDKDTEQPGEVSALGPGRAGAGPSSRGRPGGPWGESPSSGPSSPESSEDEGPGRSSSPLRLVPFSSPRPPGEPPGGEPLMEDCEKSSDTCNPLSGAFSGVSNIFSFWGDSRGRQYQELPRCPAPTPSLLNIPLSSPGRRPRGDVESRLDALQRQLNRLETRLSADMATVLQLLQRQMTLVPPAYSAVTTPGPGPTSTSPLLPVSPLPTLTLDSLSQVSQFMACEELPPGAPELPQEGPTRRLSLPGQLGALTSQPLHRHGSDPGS

This assay has as its target human ether-à-go-go-related gene (hERG) potassium channel (human, UniProt Q12809). In words: primary screen, population patch clamp on CHO cells stably expressing hERG.
`CC1CN=C2C(C(=O)Nc3ccccc3)=C(O)CC(c3ccccc3)N21` (stereo not shown): the “hERG current change (%, negative = inhibition) at 1uM” value stood at 5.43%. Consider `Cc1ccc(C(=O)NCC(=O)N2CCN(c3ccccc3)CC2)cc1`, for which the “hERG current change (%, negative = inhibition) at 1uM” value was determined as 13.7%.

As to `Cc1c([N+](=O)[O-])cc(S(=O)(=O)Nc2ccncc2)cc1[N+](=O)[O-]`, the “hERG current change (%, negative = inhibition) at 1uM” value is listed as 15%. Take `CCOC(=O)Cc1cc(=O)[nH]c(/N=C(/NC(=O)c2ccccc2)Nc2ccccc2C(F)(F)F)n1`: the “hERG current change (%, negative = inhibition) at 1uM” value was found to be 6.61%.

Consider `COCCCNC(=O)c1oc2ccc(S(=O)(=O)N3CCOCC3)cc2c1C`, for which the “hERG current change (%, negative = inhibition) at 1uM” value was -1.13%.

Regarding `COc1ccccc1N1CCN(S(=O)(=O)c2ccc3c(c2)NC(=O)C(C)C(=O)N3)CC1` (stereo not shown), the “hERG current change (%, negative = inhibition) at 1uM” value was found to be 6.48%. With `COc1ccc(NC(=O)CCC(=O)Nc2nnc(C3CCCCC3)s2)c(OC)c1` the figure was 15.9%. With `CN(C(=O)c1cc2ccccc2cc1O)C1CCCCC1` the figure was 2.13%; with `COc1ccc(C(=O)Nc2cccc(S(=O)(=O)NC3=NCCCCC3)c2)cc1`, 1.72%. With `CCc1nc(C)cn1S(=O)(=O)c1cc(OC)c(C)cc1C` the figure was 8.94%; with `Fc1ccc(Cn2nnnc2CN2CCN(C3CCCCC3)CC2)cc1`, -8.68%; with `CC(Oc1ccccc1F)C(=O)NNC(=O)CCNC(=O)c1ccco1` (stereo not shown), 3.18%. For the molecule `NC(=O)c1ccsc1NC(=O)COC(=O)c1nc(Cl)ccc1Cl`, the “hERG current change (%, negative = inhibition) at 1uM” value stood at 10.4%. Then `COCCNC(=O)C1CC(=O)N(c2ccc(OC)cc2)C1c1ccc(OC)cc1` (stereo not shown), with -1.35%; and `FC(F)C(F)(F)C1=CC(c2cccs2)=NCCN1`, with -7.04%. Then `O=C(COC(=O)C1CCN(c2ccc(C(F)(F)F)cn2)CC1)NCCc1ccccc1`, with 4.05%; and `Cc1nn2c(-c3ccccc3)ccnc2c1-c1ccccc1`, with 7.57%; and `N#C/C(=C\c1cc2c(cc1Br)OCO2)c1ccc(C(=O)O)cc1`, with 13.6%. Then `O=C(CCN1C(=O)C2C3C=CC(C3)C2C1=O)Nc1nccs1` (stereo not shown), with 5.91%; and `CCOC(=O)C(=O)Nc1ccccc1C(=O)OCC`, with 0.567%.

For `CCOc1ccc2c(c1)C(N(CCN1CCOCC1)C(=O)Nc1ccc(OC)cc1OC)CC(C)(C)O2` (stereo not shown), the “hERG current change (%, negative = inhibition) at 1uM” value was 4.51%. With `Cc1ccc(S(=O)(=O)NC(C)C(=O)Nc2ccccc2C(=O)N2CCCC2)cc1` (stereo not shown) the figure was 15.8%; with `COc1ccccc1-n1cc(C(=O)c2cc(Cl)ccc2O)cc(C#N)c1=O`, 8.64%. In the case of `CCOC(=O)C1CCN(Cc2ccc(O)c3ncccc23)CC1`, the “hERG current change (%, negative = inhibition) at 1uM” value was determined as 10.4%. For the molecule `Cc1cc(Oc2ccc([N+](=O)[O-])cc2)nc(N2CCOCC2)n1`, the “hERG current change (%, negative = inhibition) at 1uM” value is listed as 14.8%. With `CC(=O)C1=C(C)NC(C)=C(C(C)=O)C1c1cn(-c2ccccc2)nc1-c1cccs1` the figure was 8.37%; with `CCOC(=O)COc1ccc2c(c1)C(=O)CC1(CCN(C(C)=O)CC1)O2`, -1.98%. As to `O=C(Nc1cccnc1)c1ccc2c(c1)C(=O)N(CC1CCCO1)C2=O` (stereo not shown), the “hERG current change (%, negative = inhibition) at 1uM” value was 9.2%. For `O=C(CN1C(=O)c2ccc([N+](=O)[O-])cc2C1=O)NCC1CCCO1` (stereo not shown), the “hERG current change (%, negative = inhibition) at 1uM” value is 10.3%.

Turning to `CCN1CCN(CC(=O)Nc2ccc(C)cc2C)C(=O)C1=O`, the “hERG current change (%, negative = inhibition) at 1uM” value came out at 11.9%.

As for `Cc1cccc(C)c1OCC(=O)Nc1cccc(S(=O)(=O)N2CCCC2)c1`, the “hERG current change (%, negative = inhibition) at 1uM” value was determined as 11.1%. Then `Cl.ON=C1c2cc(OCCN3CCCCC3)ccc2-c2ccc(OCCN3CCCCC3)cc21`, with -17.2%. Then `N#Cc1cc2c(N)c(C(=O)Nc3ccccc3)sc2nc1N`, with 13.3%. Then `CCS(=O)(=O)c1nc(NC(C)=O)n[nH]1`, with 14.7%; and `COc1ccccc1C1CCN(C(=O)c2cccc([N+](=O)[O-])c2)CC1`, with 5.11%. With `Cc1ccccc1N1CCN(C2CCCN(C(=O)CCC3(C)CC3)C2)CC1` (stereo not shown), the “hERG current change (%, negative = inhibition) at 1uM” value was -15.1%. Take `CCOC(=O)C(NS(=O)(=O)c1ccccc1)(C(F)(F)F)P(=O)(OCC(C)C)OCC(C)C` (stereo not shown): the “hERG current change (%, negative = inhibition) at 1uM” value came to 7.35%. With `O=C(NCc1ccc2c(c1)OCO2)c1ccc(CN2CCOCC2)cc1` the figure was 13.7%; with `COc1cc2c(=O)n(CCC(=O)NCC3CCCO3)c(=O)n(CC(=O)c3ccc(Cl)cc3)c2cc1OC` (stereo not shown), 8.95%; with `COC(=O)[C@@H](NC(=O)Nc1ccc(OC(F)(F)F)cc1)C(C)C`, 3.79%.

On to `CCCc1nc([N+](=O)[O-])c(S(=O)(=O)c2ccccc2)n1CC(C)C`, for which the “hERG current change (%, negative = inhibition) at 1uM” value is given as 12.8%.

For `O=C(Nc1ccccc1Br)C1CCCN1S(=O)(=O)c1cccc2nsnc12` (stereo not shown), the “hERG current change (%, negative = inhibition) at 1uM” value is given as 6%. For the molecule `Cc1cccc(N2C(=O)/C(=C/c3cccnc3)SC2=S)c1`, the “hERG current change (%, negative = inhibition) at 1uM” value came out at 16.8%. With `Cc1ccccc1NC(=S)NNc1ncc(C(F)(F)F)cc1Cl` the figure was 10.2%; with `CC(C)CCN1CCN(Cc2ccon2)CC1CCO` (stereo not shown), 0.787%; with `Cc1nnc(SCCn2c(Br)nc3c2c(=O)n(C)c(=O)n3C)s1`, 3.38%. Then `Cc1cc(NC(=O)CSc2nnc(-c3cccs3)n2N)no1`, with 7.87%; and `O=[N+]([O-])c1ccc(-c2cc(-c3ccc(Cl)cc3)n[nH]2)cc1`, with -2.59%. With `O=C(c1cc2cc([N+](=O)[O-])ccc2oc1=O)n1cccn1` the figure was 4.15%; with `OC(COc1ccc2ccccc2c1Br)Cn1ccnc1` (stereo not shown), -2.77%. As to `Cc1ccc(NC(=O)c2cccnc2C(=O)O)nc1`, the “hERG current change (%, negative = inhibition) at 1uM” value is reported as 7.25%.

Consider `CN1C[C@H](C(=O)N[C@]2(C)O[C@@]3(O)[C@@H]4CCCN4C(=O)[C@H](Cc4ccccc4)N3C2=O)CC2c3cccc4[nH]cc(c34)C[C@H]21.CS(=O)(=O)O` (stereo partly shown), for which the “hERG current change (%, negative = inhibition) at 1uM” value is given as 1.02%. Turning to `COc1ccc(NC(=O)c2cc3n(n2)C(C(F)(F)F)CC(c2ccc(OC)cc2)N3)cc1` (stereo not shown), the “hERG current change (%, negative = inhibition) at 1uM” value turned out to be 10.2%. With `CC[C@@]1(c2ccccc2C)C(=O)N(C(=O)OC)N1C(=O)OC`, the “hERG current change (%, negative = inhibition) at 1uM” value was determined as 16.9%. For the molecule `CN(C)CCCN(C(=O)CCc1ccccc1)c1nc2ccc(Br)cc2s1.Cl`, the “hERG current change (%, negative = inhibition) at 1uM” value is on record as 10.7%. As to `COc1ccc(C(=O)NC(=S)N2CCCCC2c2cccnc2)cc1OC` (stereo not shown), the “hERG current change (%, negative = inhibition) at 1uM” value is on record as -8.95%. For `O=C(CN1C(=O)c2cccc3cccc(c23)C1=O)N1CCOCC1`, the “hERG current change (%, negative = inhibition) at 1uM” value is given as 8.88%. With `Cn1c(SCC(=O)NC2(C#N)CCCCC2)nnc1-c1cccnc1` the figure was 7.68%; with `Cc1ccc(NC(=O)CN(C)C(=O)COc2cccc3cccnc23)cc1`, 13.2%. For the molecule `Cc1cccc(NC(=O)C2CC(=O)N/C(=N/N=C/c3ccco3)S2)c1` (stereo not shown), the “hERG current change (%, negative = inhibition) at 1uM” value is reported as 9.65%. For the molecule `O=C1CSC(=O)N1CC(O)COc1ccc(Cl)cc1` (stereo not shown), the “hERG current change (%, negative = inhibition) at 1uM” value is -5.87%. With `O=[N+]([O-])c1nn(-c2ccc3c(c2)OCCO3)n(O)c1=Nc1ccc(Cl)cc1`, the “hERG current change (%, negative = inhibition) at 1uM” value is 13.6%. `Cc1ccc(S(=O)(=O)N(C)c2ccc(OC(=O)CN3C(=O)NC4(CCCC4)C3=O)cc2)cc1C`: the “hERG current change (%, negative = inhibition) at 1uM” value is 7.91%. Then `O=C1C(=O)N(Cc2ccco2)C(c2cccc(Cl)c2)/C1=C(\O)c1ccc2c(c1)OCCO2` (stereo not shown), with 14.9%; and `Cc1ccc(C)c2[nH]c(=O)c(CCNC(=O)Cc3cccs3)cc12`, with 3.36%; and `COc1ccc(NC(C)=O)cc1S(=O)(=O)N1CCc2ccccc21`, with 7.93%. Then `O=C(Nc1ccc(F)c(F)c1)c1ccc(F)c(S(=O)(=O)N2CCC3(CC2)OCCO3)c1`, with 10.4%; and `O=C(COC(=O)c1cc(NS(=O)(=O)c2cccs2)ccc1O)Nc1ccccc1`, with 11.5%; and `CCN(Cc1nc(-c2ccccc2)no1)C(=O)c1ccc2c(c1)OCO2`, with 11.2%.

In the case of `Cc1c(N=Cc2ccncc2)c(=O)n(-c2ccccc2)n1C`, the “hERG current change (%, negative = inhibition) at 1uM” value is recorded as -15.6%.

For `CCCCN(C)C(=O)c1oc2ccc(S(=O)(=O)N3CCCCCC3)cc2c1C`, the “hERG current change (%, negative = inhibition) at 1uM” value stood at 7.73%. With `C=CCn1c(SCC(=O)NC(=O)NCc2ccco2)nc2sc(C)c(C)c2c1=O` the figure was 6.36%; with `O=C(COc1ncnc2sccc12)Nc1ccc2c(c1)OCCO2`, 14.5%. For the molecule `O=C(O)CCc1ccc(-c2ccc(Cl)cc2)n1CCC(=O)O`, the “hERG current change (%, negative = inhibition) at 1uM” value was found to be 11.6%.

Regarding `CC1CCCC(NC(=O)CCNC(=O)c2ccc(Cl)cc2)C1C` (stereo not shown), the “hERG current change (%, negative = inhibition) at 1uM” value was 1.39%. With `Cc1onc(-c2c(Cl)cccc2Cl)c1C(=O)NC1C(=O)N2C1SC(C)(C)C2C(=O)[O-].[Na+]` (stereo not shown), the “hERG current change (%, negative = inhibition) at 1uM” value came out at 9.43%. `COc1ccc(CN(CCC(c2ccccc2)C2CCOC(C)(C)C2)C(C)=O)cc1` (stereo not shown): the “hERG current change (%, negative = inhibition) at 1uM” value came to 2.09%. Then `COc1ccc(N2CC(O)=C(c3nc(-c4ccccc4)cs3)C2=N)cc1`, with 9.65%. Then `CC(C)(C)c1ccccc1OCC(=O)Nc1ncn[nH]1`, with 16.2%. As to `Cc1cc(=O)n2[nH]c(NCc3ccccc3F)nc2n1`, the “hERG current change (%, negative = inhibition) at 1uM” value is reported as 5.99%.

Regarding `C=C(C)COc1ccc(-c2nc(N)nc(C)c2Oc2ccccc2OC)c(O)c1`, the “hERG current change (%, negative = inhibition) at 1uM” value is recorded as 14%. Then `O=C(c1ccco1)N1CCN(C(=O)c2cc3sccc3n2Cc2ccccc2)CC1`, with -11%; and `CCCCn1c(N)c(N(CCOC)C(=O)COc2c(C)cccc2C)c(=O)[nH]c1=O`, with 6.75%.

Consider `Cn1c(COc2ccc3ccccc3c2)nnc1SCC(=O)OC1CCCCC1`, for which the “hERG current change (%, negative = inhibition) at 1uM” value worked out at 10.1%.

As to `CN(C)c1ccc(NC(=O)Cn2c(=O)n(Cc3ccccc3)c(=O)c3ccccc32)cc1`, the “hERG current change (%, negative = inhibition) at 1uM” value came to 4.7%.
